For 18 molecules, enrichment score results are on record in the supplement of paper PMC10369915.

The list shows a part of the results. No stated cut-off is given here; in the data, active = 3.2 or more and inactive = the rest. The signal is at background level for most entries.
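Further: displayed peptides selected on beads carrying the immobilized SH2 domain, with library peptides lacking any tyrosine serving as negative controls.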

The target of the first assay is SHP2 C-SH2 domain E139D. Briefly: enrichment score (SH2-bound / input frequency) (ratio); bacterial display of known human phosphotyrosine sites (pTyr-Var adds point mutants) read by sequencing; higher = stronger binding; tyrosines were phosphorylated by kinases first. The conditions noted are these: peptide library: Human pTyr.
Turning to ETRICKIYDSPCLPE [RAD51_HUMAN_315], the enrichment score is inactive: 0.875.
Consider DSKVDLIYQNTTAMT [PTPRJ_HUMAN_1311], for which the enrichment score was inactive: 0.729.
YIDAFSDYANFKGGG [PTPRA_HUMAN_798]: the enrichment score was inactive: 0.79.
As for SAEEAPLYSKVTPRA [PTN18_HUMAN_389], the enrichment score was inactive: 0.808.
In the case of WEKARPEYMLPVHFY [PYGB_HUMAN_197], the enrichment score is inactive: 0.972.
Consider SPLDKDTYPPSASVV [RBM15_HUMAN_266], for which the enrichment score was inactive: 0.507.
Same read-out and setting: next, SALAEDRYLLGTSLA [ASSY_HUMAN_87_YA]: inactive: 0.521; GQRDSSAYWEIEASE [RAF1_HUMAN_341_YA]: inactive: 1.01; VVLVDPEYLKERRVA [ARRB1_HUMAN_47_YA]: inactive: 0.573.
VKHFTNPYCNIYLNS [RASA1_HUMAN_615]: the enrichment score was inactive: 2.6.
Still for that read-out and setting: next, SRIGDELYLEPLEDG [RAD9A_HUMAN_28]: inactive: 1.19.
For VVLVDPDYLKDRKVF [ARRB2_HUMAN_48], the enrichment score is inactive: 0.679.
The same measure, in the same setting: the same measure for NVYYGQDYRNKYKAP [RAPH1_HUMAN_456]: inactive: 1.58; for AVQTEEQYRFLAHTV [PTPN18_HUMAN_281_YA]: inactive: 0.627; for SKRKGHEYTNIKYSL [PTN11_HUMAN_546]: active: 3.39.
Turning to TGDYYDLYGGEKFAT [PTN11_HUMAN_66], the enrichment score was inactive: 0.71.
On the same count and under the same terms, the same measure for ITDEQRQYYVNQFKT [REPS1_HUMAN_288]: inactive: 0.788; for TGDAADLYGGEKFAT [PTN11_HUMAN_66_YA]: inactive: 0.599.

The next assay addresses SHP2 C-SH2 domain wild-type. The assay is described as above. Conditions: peptide library: Human pTyr.
On to ETRICKIYDSPCLPE [RAD51_HUMAN_315], for which the enrichment score is inactive: 0.707.
As to DSKVDLIYQNTTAMT [PTPRJ_HUMAN_1311], the enrichment score was inactive: 0.603.
YIDAFSDYANFKGGG [PTPRA_HUMAN_798]: the enrichment score was inactive: 0.833.
Regarding SAEEAPLYSKVTPRA [PTN18_HUMAN_389], the enrichment score was inactive: 0.629.
As to WEKARPEYMLPVHFY [PYGB_HUMAN_197], the enrichment score was inactive: 1.14.
As to SPLDKDTYPPSASVV [RBM15_HUMAN_266], the enrichment score is inactive: 0.571.
On to SALAEDRYLLGTSLA [ASSY_HUMAN_87_YA], for which the enrichment score is inactive: 0.45.
As to GQRDSSAYWEIEASE [RAF1_HUMAN_341_YA], the enrichment score was inactive: 0.824.
On to VVLVDPEYLKERRVA [ARRB1_HUMAN_47_YA], for which the enrichment score is inactive: 0.566.
Take VKHFTNPYCNIYLNS [RASA1_HUMAN_615]: the enrichment score is inactive: 2.37.
On the same count and under the same terms, the same measure for SRIGDELYLEPLEDG [RAD9A_HUMAN_28]: inactive: 0.977; for VVLVDPDYLKDRKVF [ARRB2_HUMAN_48]: inactive: 0.507.
In the case of NVYYGQDYRNKYKAP [RAPH1_HUMAN_456], the enrichment score was inactive: 1.97.
As for AVQTEEQYRFLAHTV [PTPN18_HUMAN_281_YA], the enrichment score is inactive: 0.702.
For SKRKGHEYTNIKYSL [PTN11_HUMAN_546], the enrichment score is active: 4.11.
Same read-out and setting: next, TGDYYDLYGGEKFAT [PTN11_HUMAN_66]: inactive: 0.782; ITDEQRQYYVNQFKT [REPS1_HUMAN_288]: inactive: 0.888.
As to TGDAADLYGGEKFAT [PTN11_HUMAN_66_YA], the enrichment score is inactive: 0.589.

In a further assay the target is SHP2 N-SH2 domain L43F. The description is as above. Conditions: peptide library: Human pTyr.
As to ETRICKIYDSPCLPE [RAD51_HUMAN_315], the enrichment score was inactive: 0.666.
In the case of DSKVDLIYQNTTAMT [PTPRJ_HUMAN_1311], the enrichment score was inactive: 0.626.
For YIDAFSDYANFKGGG [PTPRA_HUMAN_798], the enrichment score is inactive: 1.04.
In the case of SAEEAPLYSKVTPRA [PTN18_HUMAN_389], the enrichment score is inactive: 0.67.
As for WEKARPEYMLPVHFY [PYGB_HUMAN_197], the enrichment score is inactive: 1.11.
With SPLDKDTYPPSASVV [RBM15_HUMAN_266], the enrichment score is inactive: 0.876.
Consider SALAEDRYLLGTSLA [ASSY_HUMAN_87_YA], for which the enrichment score was inactive: 0.359.
In the case of GQRDSSAYWEIEASE [RAF1_HUMAN_341_YA], the enrichment score was inactive: 0.809.
On to VVLVDPEYLKERRVA [ARRB1_HUMAN_47_YA], for which the enrichment score is inactive: 0.58.
Take VKHFTNPYCNIYLNS [RASA1_HUMAN_615]: the enrichment score is inactive: 2.03.
Still for that read-out and setting: next, SRIGDELYLEPLEDG [RAD9A_HUMAN_28]: inactive: 1.12; VVLVDPDYLKDRKVF [ARRB2_HUMAN_48]: inactive: 0.638.
Regarding NVYYGQDYRNKYKAP [RAPH1_HUMAN_456], the enrichment score was inactive: 1.45.
Consider AVQTEEQYRFLAHTV [PTPN18_HUMAN_281_YA], for which the enrichment score was inactive: 0.751.
For SKRKGHEYTNIKYSL [PTN11_HUMAN_546], the enrichment score was inactive: 3.13.
In the case of TGDYYDLYGGEKFAT [PTN11_HUMAN_66], the enrichment score was inactive: 0.685.
As to ITDEQRQYYVNQFKT [REPS1_HUMAN_288], the enrichment score is inactive: 0.672.
For the molecule TGDAADLYGGEKFAT [PTN11_HUMAN_66_YA], the enrichment score is inactive: 0.358.

The target of the next assay is SHP2 N-SH2 domain T42A. Described as above. The conditions noted are these: peptide library: Human pTyr.
Take ETRICKIYDSPCLPE [RAD51_HUMAN_315]: the enrichment score is inactive: 0.764.
Regarding DSKVDLIYQNTTAMT [PTPRJ_HUMAN_1311], the enrichment score is inactive: 0.612.
As to YIDAFSDYANFKGGG [PTPRA_HUMAN_798], the enrichment score was inactive: 0.731.
With SAEEAPLYSKVTPRA [PTN18_HUMAN_389], the enrichment score was inactive: 0.454.
Consider WEKARPEYMLPVHFY [PYGB_HUMAN_197], for which the enrichment score was inactive: 1.02.
Regarding SPLDKDTYPPSASVV [RBM15_HUMAN_266], the enrichment score is inactive: 0.689.
Take SALAEDRYLLGTSLA [ASSY_HUMAN_87_YA]: the enrichment score was inactive: 0.507.
As for GQRDSSAYWEIEASE [RAF1_HUMAN_341_YA], the enrichment score was inactive: 0.763.
VVLVDPEYLKERRVA [ARRB1_HUMAN_47_YA]: the enrichment score is inactive: 0.633.
As to VKHFTNPYCNIYLNS [RASA1_HUMAN_615], the enrichment score was inactive: 2.04.
The same measure, in the same setting: the same measure for SRIGDELYLEPLEDG [RAD9A_HUMAN_28]: inactive: 1.15.
For the molecule VVLVDPDYLKDRKVF [ARRB2_HUMAN_48], the enrichment score is inactive: 0.719.
Take NVYYGQDYRNKYKAP [RAPH1_HUMAN_456]: the enrichment score is inactive: 1.77.
As for AVQTEEQYRFLAHTV [PTPN18_HUMAN_281_YA], the enrichment score is inactive: 0.794.
Regarding SKRKGHEYTNIKYSL [PTN11_HUMAN_546], the enrichment score was active: 3.51.
As to TGDYYDLYGGEKFAT [PTN11_HUMAN_66], the enrichment score is inactive: 0.716.
Still for that read-out and setting: the same measure for ITDEQRQYYVNQFKT [REPS1_HUMAN_288]: inactive: 0.757; for TGDAADLYGGEKFAT [PTN11_HUMAN_66_YA]: inactive: 0.414.

A further assay deals with SHP2 N-SH2 domain T52S. Described as above. The conditions noted are these: peptide library: Human pTyr.
Consider ETRICKIYDSPCLPE [RAD51_HUMAN_315], for which the enrichment score is inactive: 0.667.
Take DSKVDLIYQNTTAMT [PTPRJ_HUMAN_1311]: the enrichment score is inactive: 0.692.
On the same count and under the same terms, the same measure for YIDAFSDYANFKGGG [PTPRA_HUMAN_798]: inactive: 0.726; for SAEEAPLYSKVTPRA [PTN18_HUMAN_389]: inactive: 0.612; for WEKARPEYMLPVHFY [PYGB_HUMAN_197]: inactive: 1.09.
On to SPLDKDTYPPSASVV [RBM15_HUMAN_266], for which the enrichment score is inactive: 0.569.
Turning to SALAEDRYLLGTSLA [ASSY_HUMAN_87_YA], the enrichment score was inactive: 0.462.
As for GQRDSSAYWEIEASE [RAF1_HUMAN_341_YA], the enrichment score was inactive: 0.994.
As for VVLVDPEYLKERRVA [ARRB1_HUMAN_47_YA], the enrichment score was inactive: 0.685.
As for VKHFTNPYCNIYLNS [RASA1_HUMAN_615], the enrichment score was inactive: 2.33.
As for SRIGDELYLEPLEDG [RAD9A_HUMAN_28], the enrichment score was inactive: 1.25.
As for VVLVDPDYLKDRKVF [ARRB2_HUMAN_48], the enrichment score was inactive: 0.689.
As for NVYYGQDYRNKYKAP [RAPH1_HUMAN_456], the enrichment score was inactive: 1.5.
In the case of AVQTEEQYRFLAHTV [PTPN18_HUMAN_281_YA], the enrichment score is inactive: 0.716.
The same measure, in the same setting: the same measure for SKRKGHEYTNIKYSL [PTN11_HUMAN_546]: active: 4.5; for TGDYYDLYGGEKFAT [PTN11_HUMAN_66]: inactive: 0.47.
As for ITDEQRQYYVNQFKT [REPS1_HUMAN_288], the enrichment score was inactive: 0.759.
Same read-out and setting: the same measure for TGDAADLYGGEKFAT [PTN11_HUMAN_66_YA]: inactive: 0.379.

Another assay has as its target SHP2 N-SH2 domain wild-type. The assay is described as above. The conditions noted are these: peptide library: Human pTyr.
As for ETRICKIYDSPCLPE [RAD51_HUMAN_315], the enrichment score was inactive: 0.735.
DSKVDLIYQNTTAMT [PTPRJ_HUMAN_1311]: the enrichment score is inactive: 0.662.
On to YIDAFSDYANFKGGG [PTPRA_HUMAN_798], for which the enrichment score is inactive: 0.613.
Regarding SAEEAPLYSKVTPRA [PTN18_HUMAN_389], the enrichment score was inactive: 0.641.
Still for that read-out and setting: next, WEKARPEYMLPVHFY [PYGB_HUMAN_197]: inactive: 1.29.
On to SPLDKDTYPPSASVV [RBM15_HUMAN_266], for which the enrichment score is inactive: 0.603.
For the molecule SALAEDRYLLGTSLA [ASSY_HUMAN_87_YA], the enrichment score is inactive: 0.531.
For GQRDSSAYWEIEASE [RAF1_HUMAN_341_YA], the enrichment score is inactive: 0.874.
For the molecule VVLVDPEYLKERRVA [ARRB1_HUMAN_47_YA], the enrichment score was inactive: 0.781.
Take VKHFTNPYCNIYLNS [RASA1_HUMAN_615]: the enrichment score is inactive: 2.54.
On to SRIGDELYLEPLEDG [RAD9A_HUMAN_28], for which the enrichment score was inactive: 1.15.
As to VVLVDPDYLKDRKVF [ARRB2_HUMAN_48], the enrichment score was inactive: 0.574.
The same measure, in the same setting: the same measure for NVYYGQDYRNKYKAP [RAPH1_HUMAN_456]: inactive: 1.77; for AVQTEEQYRFLAHTV [PTPN18_HUMAN_281_YA]: inactive: 0.837; for SKRKGHEYTNIKYSL [PTN11_HUMAN_546]: active: 4.79.
Regarding TGDYYDLYGGEKFAT [PTN11_HUMAN_66], the enrichment score was inactive: 0.419.
Turning to ITDEQRQYYVNQFKT [REPS1_HUMAN_288], the enrichment score is inactive: 0.957.
As for TGDAADLYGGEKFAT [PTN11_HUMAN_66_YA], the enrichment score was inactive: 0.44.
